# This is one part of the list.
# B1: Strep tagII-anxA1 (Homo sapiens), P04083 (protein)
# chain: MAMVSEFLKQAWFIENEEQEYVQTVKSSKGGPGSAVSPYPTFNPSSDVAALHKAIMVKGVDEATIIDILTKRNNAQRQQIKAAYLQETGKPLDETLKKALTGHLEEVVLALLKTPAQFDADELRAAMKGLGTDEDTLIEILASRTNKEIRDINRVYREELKRDLAKDITSDTSGDFRNALLSLAKGDRSEDFGVNEDLADSDARALYEAGERRKGTDVNVFNTILTTRSYPQLRRVFQKYTKYSKHDMNKVLDLELKGDIEKCLTAIVKCATSKPAFFAEKLHQAMKGVGTRHKALIRIMVSRSEIDMNDIKAFYQKMYGISLCQAILDETKGDYEKILVALCGGN
# Legend:
# Experiment in all cases: glycan array binding signal (z-score within array); higher = stronger binding
# Details in all cases: glycan notation: IUPAC condensed, linker removed
# [1] = target: Fuc(a1-2)[GalNAc(a1-3)]Gal(b1-4)GlcNAc(b1-3)Gal(b1-4)GlcNAc
# Outline: (§1)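 Columns mapping to the same glycan were averaged after glycan names were converted to IUPAC-condensed notation. The data come from 3228 arrays in the Consortium for Functional Glycomics database, limited to those with an available protein sequence. Binding is reported as a within-array Z-score averaged across arrays of one protein sequence and across linkers.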
# [2] = target: Fuc(a1-2)[GalNAc(a1-3)]Gal(b1-4)GlcNAc(b1-3)Gal(b1-4)GlcNAc(b1-3)Gal(b1-4)GlcNAc
# Outline: as §1
# [3] = target: Fuc(a1-2)[GalNAc(a1-3)]Gal(b1-4)GlcNAc(b1-3)GalNAc
# Outline: as §1
# [4] = target: Fuc(a1-2)[GalNAc(a1-3)]Gal(b1-4)[Fuc(a1-3)]GlcNAc
# Outline: as §1
# [5] = target: Fuc(a1-2)[GalNAc(a1-3)]Gal(b1-4)[Fuc(a1-3)]GlcNAc(b1-3)GalNAc
# Outline: as §1
# [6] = target: Fuc(a1-2)[GalNAc(a1-4)]Gal(b1-4)GlcNAc
# Outline: as §1
# [7] = target: Fuc(a1-2)[GalNAc(b1-3)]Gal
# Outline: as §1
# [8] = target: Fuc(a1-3)GlcNAc
# Outline: as §1
# [9] = target: Fuc(a1-3)[Gal(b1-4)]Glc6S
# Outline: as §1
# [10] = target: Fuc(a1-3)[Gal(b1-4)]GlcNAc
# Outline: as §1
# [11] = target: Fuc(a1-3)[Gal(b1-4)]GlcNAc(b1-2)Man
# Outline: as §1
# [12] = target: Fuc(a1-3)[Gal(b1-4)]GlcNAc(b1-2)Man(a1-3)[Fuc(a1-3)[Gal(b1-4)]GlcNAc(b1-2)Man(a1-6)]Man(b1-4)GlcNAc(b1-4)GlcNAc
# Outline: as §1
# [13] = target: Fuc(a1-3)[Gal(b1-4)]GlcNAc(b1-2)Man(a1-3)[Fuc(a1-3)[Gal(b1-4)]GlcNAc(b1-2)Man(a1-6)]Man(b1-4)GlcNAc(b1-4)[Fuc(a1-6)]GlcNAc
# Outline: as §1
# [14] = target: Fuc(a1-3)[Gal(b1-4)]GlcNAc(b1-3)Gal(b1-3)[Fuc(a1-4)]GlcNAc
# Outline: as §1
# [15] = target: Fuc(a1-3)[Gal(b1-4)]GlcNAc(b1-3)GalNAc
# Outline: as §1
# [16] = target: Fuc(a1-3)[Gal(b1-4)]GlcNAc(b1-4)Gal(b1-4)[Fuc(a1-3)]GlcNAc
# Outline: as §1
# [17] = target: Fuc(a1-3)[Gal(b1-4)]GlcNAc(b1-4)Gal(b1-4)[Fuc(a1-3)]GlcNAc(b1-4)Gal(b1-4)[Fuc(a1-3)]GlcNAc
# Outline: as §1
# [18] = target: Fuc(a1-3)[Gal(b1-4)]GlcNAc(b1-6)GalNAc
# Outline: as §1
# [19] = target: Fuc(a1-3)[Gal(b1-4)]GlcNAc(b1-6)[Gal(b1-3)GlcNAc(b1-3)]Gal(b1-4)Glc
# Outline: as §1
# [20] = target: Fuc(a1-3)[Gal(b1-4)]GlcNAc(b1-6)[Neu5Ac(a2-3)Gal(b1-3)]GalNAc
# Outline: as §1
# [21] = target: Fuc(a1-3)[Gal(b1-4)]GlcNAc6S
# Outline: as §1
# [22] = target: Fuc(a1-3)[Gal3S(b1-4)]GlcNAc
# Outline: as §1
# [23] = target: Fuc(a1-3)[Gal3S(b1-4)]GlcNAc6S
# Outline: as §1
# [24] = target: Fuc(a1-3)[GalNAc(b1-4)]GlcNAc
# Outline: as §1
# [25] = target: Fuc(a1-3)[GalNAc(b1-4)]GlcNAc6S
# Outline: as §1
# [26] = target: Fuc(a1-3)[GalNAc3S(b1-4)]GlcNAc
# Outline: as §1
# [27] = target: Fuc(a1-4)GlcNAc
# Outline: as §1
# [28] = target: Fuc(b1-3)GlcNAc
# Outline: as §1
# [29] = target: Gal(a1-2)Gal
# Outline: as §1
# [30] = target: Gal(a1-3)Gal
# Outline: as §1
# [31] = target: Gal(a1-3)Gal(b1-3)GlcNAc
# Outline: as §1
# [32] = target: Gal(a1-3)Gal(b1-3)GlcNAc(b1-2)Man(a1-3)[Gal(a1-3)Gal(b1-3)GlcNAc(b1-2)Man(a1-6)]Man(b1-4)GlcNAc(b1-4)GlcNAc
# Outline: as §1
# [33] = target: Gal(a1-3)Gal(b1-3)GlcNAc(b1-3)GalNAc
# Outline: as §1
# [34] = target: Gal(a1-3)Gal(b1-3)GlcNAc(b1-6)GalNAc
# Outline: as §1
# [35] = target: Gal(a1-3)Gal(b1-3)[Fuc(a1-4)]GlcNAc(b1-2)Man(a1-3)[Gal(a1-3)Gal(b1-3)[Fuc(a1-4)]GlcNAc(b1-2)Man(a1-6)]Man(b1-4)GlcNAc(b1-4)GlcNAc
# Outline: as §1
# [36] = target: Gal(a1-3)Gal(b1-4)Glc
# Outline: as §1
# [37] = target: Gal(a1-3)Gal(b1-4)GlcNAc
# Outline: as §1
binder,measurement,setting,value
B1,glycan array binding signal (z-score),[1],-0.608
same,glycan array binding signal (z-score),[2],-0.338
same,glycan array binding signal (z-score),[3],-0.634
same,glycan array binding signal (z-score),[4],-0.318
same,glycan array binding signal (z-score),[5],0.306
same,glycan array binding signal (z-score),[6],-0.304
same,glycan array binding signal (z-score),[7],0.112
same,glycan array binding signal (z-score),[8],0.607
same,glycan array binding signal (z-score),[9],-0.5
same,glycan array binding signal (z-score),[10],-0.383
same,glycan array binding signal (z-score),[11],-0.536
same,glycan array binding signal (z-score),[12],1.27
same,glycan array binding signal (z-score),[13],2.81
same,glycan array binding signal (z-score),[14],-0.373
same,glycan array binding signal (z-score),[15],-0.209
same,glycan array binding signal (z-score),[16],-0.769
same,glycan array binding signal (z-score),[17],-0.757
same,glycan array binding signal (z-score),[18],2.53
same,glycan array binding signal (z-score),[19],-0.505
same,glycan array binding signal (z-score),[20],0.172
same,glycan array binding signal (z-score),[21],0.128
same,glycan array binding signal (z-score),[22],0.479
same,glycan array binding signal (z-score),[23],-0.558
same,glycan array binding signal (z-score),[24],2.28
same,glycan array binding signal (z-score),[25],-0.642
same,glycan array binding signal (z-score),[26],0.467
same,glycan array binding signal (z-score),[27],-0.555
same,glycan array binding signal (z-score),[28],0.528
same,glycan array binding signal (z-score),[29],0.189
same,glycan array binding signal (z-score),[30],-0.553
same,glycan array binding signal (z-score),[31],-0.449
same,glycan array binding signal (z-score),[32],1.78
same,glycan array binding signal (z-score),[33],-0.699
same,glycan array binding signal (z-score),[34],-0.473
same,glycan array binding signal (z-score),[35],2.11
same,glycan array binding signal (z-score),[36],-0.638
same,glycan array binding signal (z-score),[37],-0.7

# Reference: the supplement of paper PMC8728848
